This is one part of the list.

Data on 27 molecules can be found in the antibiotic and cytotoxicity screens of Wong et al. (2023).

One experiment relates to HSkMC. The experiment can be described thus: cytotoxicity call (relative viability < 0.9). To be noted: 10 µM.
A further experiment relates to HepG2. In words: cytotoxicity call (relative viability < 0.9). Conditions: 10 µM.
Another experiment deals with S. aureus RN4220. The experiment can be described thus: growth inhibition call (relative growth <= 0.2). Conditions: 50 µM.

Take `Cc1ccccc1S(=O)(=O)N1C[C@H](O)COC[C@@H]2O[C@H](CC(=O)N3CCOCC3)CC[C@H]21`: the cytotoxicity call with HSkMC and in the experiment with HepG2 was “inactive” each time. Besides, in the experiment on S. aureus RN4220, the growth inhibition call was “inactive”.

`C[C@@](N)(C(=O)O)c1ccc(-c2nn[nH]n2)cc1`: the cytotoxicity call in the experiment with HSkMC and in the experiment on HepG2 was “inactive” in each case. Moreover, the growth inhibition call with S. aureus RN4220 was “inactive”.

For `Nc1nc2c(s1)CNCC2`, the cytotoxicity call in the experiment with HSkMC and in the experiment on HepG2 was “inactive” throughout. The growth inhibition call in the experiment on S. aureus RN4220 is “inactive”.

Consider `CC(C)CC#Cc1ccc2c(c1)O[C@@H](CN(C)CC1CCOCC1)[C@H](C)CN([C@H](C)CO)S2(=O)=O`, for which the cytotoxicity call with HSkMC and in the experiment with HepG2 was “inactive” in each case. In addition, the growth inhibition call with S. aureus RN4220 was “inactive”.

Consider `O=C(NCc1nc2ccccc2[nH]1)C1=C[C@@H](c2csc3ccccc23)C[C@@H](OCc2ccc(CO)cc2)O1`, for which the cytotoxicity call in the experiment with HSkMC and in the experiment on HepG2 was “inactive” in each case. For the same molecule, the growth inhibition call in the experiment on S. aureus RN4220 is “inactive”.

On to `O=C1c2c(O[C@@H]3O[C@H](CO)[C@@H](O)[C@H](O)[C@H]3O)cc(O)cc2O[C@@]1(O)Cc1ccc(O)cc1`, for which the cytotoxicity call with HSkMC and in the experiment with HepG2 was “inactive” in each case. Further, in the experiment on S. aureus RN4220, the growth inhibition call was “inactive”.

As to `C[C@H](CO)N1C[C@H](C)[C@H](CN(C)C(=O)CN(C)C)Oc2cc(C#Cc3cccnc3)ccc2S1(=O)=O`, the cytotoxicity call in the experiment with HSkMC and in the experiment on HepG2 was “inactive” in each case. In the experiment on S. aureus RN4220, the growth inhibition call was “inactive”.

On to `CCCCCC(=O)Cc1cc(O)cc(O)c1C(=O)Oc1cc(CC(=O)CCCCC)c(C(=O)O)c(OC)c1`, for which the cytotoxicity call with HSkMC and in the experiment on HepG2 was “inactive” throughout. In addition, the growth inhibition call in the experiment with S. aureus RN4220 was “active”.

Take `COc1cccc(-c2cnc3c(c2)C(=O)N([C@H](C)CO)C[C@H](C)[C@H](CN(C)S(=O)(=O)c2cccc(F)c2)O3)c1`: the cytotoxicity call in the experiment on HSkMC and in the experiment with HepG2 was “inactive” in each case. In the experiment on S. aureus RN4220, the growth inhibition call was “inactive”.

As to `C[C@@H]1CN([C@@H](C)CO)C(=O)c2cc(NS(=O)(=O)c3ccc(Cl)cc3)ccc2O[C@@H](C)CCCCO[C@@H]1CN(C)C(=O)NC1CCCCC1`, the cytotoxicity call with HSkMC and with HepG2 was “inactive” in each case. The growth inhibition call in the experiment on S. aureus RN4220 is “inactive”.

`Cc1ccc(S(=O)(=O)N(C)C[C@H]2Oc3ccc(NC(=O)Nc4cccc5ccccc45)cc3C(=O)N([C@H](C)CO)C[C@H]2C)cc1`: the cytotoxicity call in the experiment with HSkMC and in the experiment with HepG2 was “inactive” throughout. The growth inhibition call in the experiment on S. aureus RN4220 is “inactive”.

On to `COCCOC(=O)N1C(=O)[C@@]2(c3cc(C#Cc4ccc(OC)cc4)ccc31)[C@H](C(=O)N1CCc3cc(OC)c(OC)cc3C1)[C@H]1C(=O)O[C@H](c3ccccc3)[C@H](c3ccccc3)N1[C@@H]2c1ccc(O)cc1`, for which the cytotoxicity call with HSkMC and in the experiment on HepG2 was “inactive” in each case. Moreover, in the experiment with S. aureus RN4220, the growth inhibition call was “inactive”.

Take `CC(C)(Sc1ccc(CCN(CCCCC2CCCCC2)C(=O)NC2CCCCC2)cc1)C(=O)O`: the cytotoxicity call with HSkMC and in the experiment with HepG2 was “inactive” throughout. Also, the growth inhibition call in the experiment with S. aureus RN4220 is “active”.

Turning to `CNC[C@@H]1Oc2c(NS(=O)(=O)c3cn(C)cn3)cccc2C(=O)N([C@H](C)CO)C[C@H]1C`, the cytotoxicity call in the experiment with HSkMC and with HepG2 was “inactive” throughout. Moreover, the growth inhibition call in the experiment on S. aureus RN4220 is “inactive”.

For the molecule `COCC#Cc1ccc([C@@H]2[C@H]3CN(C(=O)c4cccnc4)CC(=O)N3[C@H]2CO)cc1`, the cytotoxicity call with HSkMC and in the experiment with HepG2 was “inactive” throughout. For the same molecule, the growth inhibition call in the experiment with S. aureus RN4220 was “inactive”.

For the molecule `CC(=O)CC(=O)O`, the cytotoxicity call in the experiment with HSkMC and in the experiment on HepG2 was “inactive” in each case. Besides, in the experiment on S. aureus RN4220, the growth inhibition call is “inactive”.

Regarding `C[C@@H]1CN([C@@H](C)CO)C(=O)Cc2cc(NC(=O)Nc3ccc(C(F)(F)F)cc3)ccc2O[C@@H]1CN(C)C(=O)NC1CCCCC1`, the cytotoxicity call in the experiment on HSkMC and in the experiment on HepG2 was “active” throughout. Also, in the experiment with S. aureus RN4220, the growth inhibition call was “inactive”.

As for `C[C@@H]1CN([C@@H](C)CO)C(=O)c2cc(NC(=O)Nc3ccc(C(F)(F)F)cc3)ccc2O[C@H]1CN(C)Cc1ccncc1`, in the experiment with HSkMC, the cytotoxicity call was “inactive”. Also, the cytotoxicity call in the experiment on HepG2 was “active”. Moreover, the growth inhibition call in the experiment on S. aureus RN4220 is “inactive”.

In the case of `Cc1ccc(S(=O)(=O)N(C)C[C@@H]2Oc3c(NC(=O)c4ccncc4)cccc3C(=O)N([C@@H](C)CO)C[C@@H]2C)cc1`, the cytotoxicity call with HSkMC and in the experiment on HepG2 was “inactive” each time. Also, the growth inhibition call with S. aureus RN4220 was “inactive”.

Turning to `COc1ccc(S(=O)(=O)Nc2ccc3c(c2)C(=O)N([C@H](C)CO)C[C@@H](C)[C@H](CN(C)C(=O)Nc2ccc(C(F)(F)F)cc2)OCCCC[C@H](C)O3)cc1`, the cytotoxicity call in the experiment on HSkMC and in the experiment on HepG2 was “inactive” in each case. Further, in the experiment on S. aureus RN4220, the growth inhibition call was “inactive”.

As for `C[C@@H]1CN([C@@H](C)CO)C(=O)c2cc(NS(=O)(=O)c3ccccc3)ccc2O[C@@H](C)CCCCO[C@@H]1CN(C)C(=O)C1CCCCC1`, the cytotoxicity call in the experiment on HSkMC and in the experiment with HepG2 was “inactive” in each case. Further, in the experiment with S. aureus RN4220, the growth inhibition call is “inactive”.

`COC(=O)CC[C@H]1CCCNC1`: the cytotoxicity call with HSkMC and in the experiment on HepG2 was “inactive” each time. In addition, in the experiment with S. aureus RN4220, the growth inhibition call was “inactive”.

Turning to `Cc1ccc(S(=O)(=O)N(C)C[C@@H]2OCCCC[C@@H](C)Oc3ccc(NC(=O)CCC(F)(F)F)cc3C(=O)N([C@H](C)CO)C[C@@H]2C)cc1`, the cytotoxicity call with HSkMC and in the experiment with HepG2 was “inactive” each time. The growth inhibition call with S. aureus RN4220 is “inactive”.

Turning to `C[C@@H]1CN([C@@H](C)CO)C(=O)c2cc(NC(=O)CCCN(C)C)ccc2O[C@H]1CN(C)Cc1ccc(C(=O)O)cc1`, the cytotoxicity call with HSkMC and with HepG2 was “inactive” throughout. Moreover, the growth inhibition call with S. aureus RN4220 is “inactive”.

Take `Cc1cc(C(=O)Nc2cccc3c2O[C@H](CN(C)S(=O)(=O)c2cn(C)cn2)[C@H](C)CN([C@H](C)CO)C3=O)n(C)n1`: the cytotoxicity call in the experiment on HSkMC and with HepG2 was “inactive” each time. Also, the growth inhibition call with S. aureus RN4220 is “inactive”.

Turning to `COc1ccccc1CN1C(=O)c2ccccc2[C@](Cc2ccccc2I)(C(=O)NCC(C)C)[C@@H]1c1ccc(CO)cc1`, the cytotoxicity call in the experiment on HSkMC (human skeletal muscle cells) and in the experiment with HepG2 was “inactive” in each case. Further, in the experiment on S. aureus RN4220, the growth inhibition call is “inactive”.

`C=C1[N-]O[N+](O)=C1CN(Cc1c(C)no[n+]1[O-])OC(C)=O`: the cytotoxicity call with HSkMC and in the experiment on HepG2 was “inactive” in each case. Also, the growth inhibition call in the experiment on S. aureus RN4220 is “inactive”.
